Experimental data from PubChem BioAssay (NCI).
Some structures have more than one record in an assay (separate samples or runs), and their calls can disagree.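 The test compound was applied at a single concentration to cells in 96-well plates for 48 hours, and percent growth was recorded.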 Some entries of the source have several records that differ or are many. They are shown here; other results are not. How the source made its calls: active means growth percent below 10; inactive means the rest. An entry can have further records. These are repeated runs of one drug, at the concentration stated with the values; each value is one run. Marks such as (2×) say how often a value occurs here.

Test system: A549/ATCC NSCLC
Assay: NCI-60 one-dose screen, 48 h (100 = growth as untreated, 0 = no growth, -100 = all killed)

## COc1cccc2c1C(=O)c1c(O)c3c(c(O)c1C2=O)C[C@@](O)(C(=O)CO)C[C@@H]3OC1CC(N)C(O)C(C)O1 (stereo not given in full)
0.25 µM, runs of 2012
  growth: inactive: 34.8 (2×), 28.4, 32.7 (2×), 32.3, 33.2, 33.1 (3×), 33.6 (2×), 33.3 (2×), 35.4 (2×), 28.3, 27.1, 29.1, 31.8 (2×), 33.9, 32, 29.2, 29.9, 36.2 (2×), 29, 30.9 (2×), 31, 34.5, 38.2, 36.3 (2×), 35.1, 33, 37.1, 37.3, 32.6, 31.1, 34.3 (3×), 35.2 (2×), 38.5, 26.6, 24.3, 37.7 (2×), 34.6, 36.6 (2×), 45.4, 40.7, 38.1, 37.6, 34.9, 37.2, 30, 31.9, 34.2, 31.2, 40.1, 28.2, 37.4, 32.9, 31.5%
0.25 µM, runs of 2013
  growth: inactive: 31.9, 34.1 (2×), 34.6, 30, 35.3 (2×), 33.3, 40.4, 33, 33.6, 32.3, 39.9 (2×), 36.8 (2×), 42.5, 34.9, 37.2, 39.3 (2×), 34, 32.9, 38.3 (4×), 33.5 (2×), 38.1, 32.7, 37.1 (2×), 37.7 (2×), 36.3, 37.3 (2×), 42.6, 41.9, 46, 37.9, 33.1, 34.3, 41.6, 40.1, 37.5 (2×), 36.9, 39.1 (2×), 33.9 (2×), 38.2, 34.8 (2×), 40.8, 38.7, 36.6 (2×), 30.2 (2×), 24.7, 40, 30.8, 35.8, 34.5, 31.2, 35.2%
0.25 µM, runs of 2014
  growth: inactive: 39.2, 40.7 (2×), 37.2, 34.8, 37.5 (3×), 44.9 (2×), 36.2, 33.3 (3×), 31.9, 33 (2×), 33.5, 36.4 (2×), 37.7, 36.9 (2×), 37.3, 38.9 (2×), 37.6, 40.1, 42.9, 38.8, 42.4, 38.7 (2×), 38.5, 41.8, 42.3, 43.1, 43.3, 45.9, 43, 45.8, 43.8, 47.8, 45.1, 41.7, 37, 39, 36.8 (2×), 33.7, 43.5, 32 (2×), 40.6, 31.2, 34.4, 32.2, 36.5, 35.4 (2×), 34.3, 33.9, 26.2, 31.3, 35.8, 30.4, 27.8, 29.6, 30, 28.4%
0.25 µM, runs of 2015
  growth: inactive: 39.8, 33.4, 30.7 (2×), 38.2 (2×), 32.9, 30.1, 33.1, 36.6, 34.1, 33.9, 32.1 (2×), 36.2 (3×), 40 (2×), 35.2 (2×), 35.1 (3×), 31.4 (2×), 34.8 (2×), 33.7 (3×), 28.4, 37.5, 28.8, 32 (2×), 31.5, 29.6, 31.8, 28.6, 29.8, 36.5 (3×), 36.4, 34.3, 34.4, 35.3 (2×), 37.7, 36.8 (3×), 31.2, 30, 35.8, 28.9, 28.2, 33.3, 31.6, 34, 36.9, 25.5, 33 (2×), 36.3, 38.1, 41.9, 31.7, 40.7, 39.3, 37.1, 42.4, 37.8, 37.3, 37, 38.8, 37.2, 39.2, 39.9%
0.25 µM, runs of 2016
  growth: inactive: 36.2 (2×), 32.1, 33.3, 37.8, 42.6, 34.6 (2×), 41.9, 38.5 (4×), 37.7 (2×), 39 (2×), 37, 34.1, 27.2, 35.4 (2×), 33.9, 45, 34.5, 34.8, 32.3, 35.3, 35.2, 39.2 (3×), 25.4, 37.5, 36.6, 31.8, 36.3 (2×), 36.9 (3×), 35.1 (2×), 37.4 (2×), 35.8, 37.6, 35.9, 40.4, 34.9, 38.2 (2×), 40.8, 36.4, 38.7, 37.3 (2×), 37.1 (2×), 38.1, 38.3 (2×), 37.2 (2×), 38.8, 34.4, 42.9, 40.2 (2×), 42.4, 46.6, 44.9, 42.5, 44.3, 44.2, 40.3, 39.9, 39.3, 37.9%
0.25 µM, runs of 2017
  growth: inactive: 42.8, 41.8 (2×), 37.1, 40.1, 35.2, 32.9, 35.9, 32.3 (2×), 39.3 (2×), 40.2, 40.7, 36.3 (3×), 37.4, 33.6 (3×), 33.2, 33.4, 31.5 (2×), 38.2 (2×), 30.3, 36.8 (2×), 30.6, 37.3 (2×), 38.1, 37.2, 39 (2×), 36.6 (2×), 33.5, 32.4 (2×), 37.7, 34.6 (3×), 36.5, 31.8, 39.1, 39.2, 33, 40.3 (2×), 32.2, 32.6, 35.4, 30, 37.8, 34.3, 33.1, 40.6, 35.8, 30.9, 29.3, 42.4, 32.5, 32, 31.7, 33.9%
0.25 µM, runs of 2018
  growth: inactive: 36.9, 32.1, 32.9 (3×), 30, 40.3, 41.6, 36.2, 35.1 (2×), 34.2, 39.2, 37.3, 37.2 (2×), 38.7, 40, 38.8, 37.4, 38.6, 42.7, 37.1 (2×), 35.2 (3×), 33.9, 32.2, 39.1, 34, 34.1 (2×), 33.7, 34.8, 35.3, 35.6, 38.3, 31.6, 31.5, 36.4, 29.9, 27.9, 34.4, 29.3, 33.5, 25.9, 31.9%
0.25 µM, runs of 2019
  growth: inactive: 37.9, 31.3 (2×), 36.5 (2×), 33.3, 34.4 (2×), 40.1, 32.4 (2×), 35.6, 39, 34.5 (3×), 36.9, 31.9 (2×), 40.3, 38.8, 36.8, 35.4 (2×), 33 (2×), 36.6, 37.8, 38.1, 34.8, 30.9, 41.9, 44.2, 39.8, 32.8, 34.1 (2×), 31.2, 33.9, 34, 35.3, 32.9, 29.6, 30.4, 30.8, 33.6 (2×), 37.5, 33.2, 32.7%
0.25 µM, runs of 2020
  growth: inactive: 33.4, 35.4 (2×), 31.8, 36.9 (2×), 32.4, 36.6 (2×), 34, 35.1 (2×), 33.8, 32.7, 39.9, 38.9, 40.6, 38.7, 37.6 (2×), 37.8, 39, 38.6%
0.25 µM, runs of 2021
  growth: inactive: 38.2 (2×), 38.1, 36.6, 37.4, 38.3 (2×), 34.8 (2×), 39.2 (2×), 36.8 (2×), 35.8, 37.6, 32.6, 34.4 (2×), 35.4 (3×), 37.1 (2×), 35.6, 32.8, 33.9, 34.1, 34.5, 37.8, 32.2, 35.9, 37.7, 35.2, 37.5, 33.1, 31.2 (3×), 38.8, 41.4, 30.9, 32.9, 36.4, 31, 32, 42.7, 42.6%
0.25 µM, runs of 2022
  growth: active: -20.6%, -12.6%, -6.16% and inactive: 33.6, 35.1, 37.1, 20.4, 37.9, 42.5, 30.5, 43.1, 42.8, 35.4, 36.5, 37, 33.2, 50.3, 55.8, 48, 46.8, 50, 40.6, 37.7, 33.1, 37.6%
25 µM, runs of 1991
  growth: active: 0.914, 6.49, 3.6, 0.264, 0.57, 0.735, -7.07, -5.56, -3.64, 8.83, 2.39, -18.4, 1.55, 8.41, 1.88, 2.65, -16.5, -0.901%
25 µM, runs of 1992
  growth: active: -10.6, -16.1, 1.02, 3.23, -16, -8.4, -8.93, 3.59, -25.7, -19.1, 4.24, 2.17, 2.88, -17.5, -22.6, 3.82, 6.57, 6.15, 7.86, -11.6, 5.98, 1.11 (2×), 5.02, 3.95, -6.84, -8.35 (2×), -0.118, -4.12, 0.42, -28.3, -62, 2.16, 0.139, 3.02, -4.11, 5.06, 3.93, 0.704, 1.8 (2×), 6.91, -12.8, -7.56, -17.6, -0.307, 6.07, 2.84 (3×), 6.82, -32.4, -2.88, 6.58, 9.01, 0.671, 3.11, 0.612, -17.3, 8.47, -34.3, 0.0754, -1.26, 7.26, 4.33, 3.67, 5.14, 2.5, -9.95, 3.08, 2.37, -3.12, -11.8, -26, -21.6, 9.06, 2.02, 5.44, 1.86, -2.7, 1.88, -7.24, 4.02, 0.992, -1.61, 1.49, -6.99, 9.79, -1.72, 2.94, 3.94, 1.45, -0.526, -7.17, -18.8, -11.3, -9.92, 7.12, 5.25, 0.514, -4.55, 2.18, -5.06, 9.77, 2, 2.98, -27.8, 3.88, -12.3, 1.08, 2.28, 0.247, 2.23, -2.79, 0.893, 2.13% and inactive: 15.7, 10, 10.7, 16.4%
25 µM, runs of 1993
  growth: active: -17.1, 9.4, 3.17, 2.66, -10.9, 6.98, 9.74, 7.02, -8.8, 5.57, -0.692, 2.95, 8.86, 9.56, 4.39, -1.37, 5.93, -10.1, 0.201, -4.06, 4.68, 2.62, 2.67, 5.22, 9.2, 1.91, 0.061, -35.4, 3.35, 3.9, 6.44, -13.7, 6.24, 3.96, -7.4, -2.38, 3.21, -3.55, 3.65, -30.4, 3.56, -13.3% and inactive: 13.8, 12.3, 10.5, 10.2, 13.7, 10.1%
25 µM, runs of 1994
  growth: active: 3.51, -9.54, -2.81, 5.36, 2.84, 2.92, -20.9, -8.23, 4.44, -11, -15.3, 2.73, 3.9, -16.8, -2.01, 4.36, -3.77, 0.398, -14.3, 6.72, 3.53, 1.87, -1.08, 7.89, 8.19, 4.2, -3.15, 4.64, 6.27, 4.03, 5.95, -4.89, 1.73% and inactive: 92.8%
